This passage reports displacement results from PubChem BioAssay AID1240 (Sanford-Burnham Center for Chemical Genomics, 2008).

The structures appear in SMILES notation. Among all 50,000 compounds or so, about 800 (1.6%) showed an effect of 50% or more. The list shows a part of the results.

The target in this assay is Bcl-2-like protein 10 (Homo sapiens) (UniProt Q9HD36). Nature of the assay: Phenotype converters, Bcl-B/TR3 peptide binding displacement, primary biochemical FP (AID 1240).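 Further: 0% = Bcl-B with tracer peptide and DMSO and 100% = tracer peptide lacking Bcl-B.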 The settings on record: GST-Bcl-B / FITC-TR3 peptide fluorescence polarization; stronger effect = higher value; compound at 3.75 mg/L.
Sequence of UniProt Q9HD36 (Q9HD36 whole entry, looked up): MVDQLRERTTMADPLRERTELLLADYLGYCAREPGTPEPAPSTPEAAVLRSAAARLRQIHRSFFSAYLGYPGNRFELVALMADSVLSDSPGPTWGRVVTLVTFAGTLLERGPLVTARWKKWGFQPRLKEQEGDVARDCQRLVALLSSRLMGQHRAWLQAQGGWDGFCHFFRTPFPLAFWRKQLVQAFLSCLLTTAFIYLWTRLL
Take `CCC1=NN2C(=N)/C(=C/c3ccc(-c4ccc(F)cc4)o3)C(=O)N=C2S1`: the displacement worked out at 69.2%.

Regarding `CCOC(=O)c1ccc(NS(=O)(=O)c2c(C)cc(C)cc2C)cc1`, the displacement was -0.7%. The same measure for `O=C1NC2C(NC(=O)N2c2ccccc2)N1c1ccccc1` (stereo not given): 2.6%; for `COc1cccc(C2(c3cccc(OC)c3)CC2C(=O)Nc2cccc(C(F)(F)F)c2)c1` (stereo not given): -15.7%; for `CCCCOc1ccccc1C1C(C(=O)OC)=C(C)N(C)C(C)=C1C(=O)OC`: -6.4%. With `CC1CCN(CCCCOc2ccc(C(C)(C)C)cc2)CC1` the figure was -2%. For `O=C(Nc1ccncc1)c1ccc(NC(=O)c2ccco2)cc1`, the displacement was 10.7%. Consider `Cc1c(NS(=O)(=O)c2ccc(F)cc2)cccc1[N+](=O)[O-]`, for which the displacement was -2.5%. The same measure for `COc1ccc(C(=O)N=Nc2c(O)n(CN3CCCC3)c3ccccc23)cc1`: -7%; for `N/C(=N\OC(=O)c1cccc(F)c1)c1ccccc1`: -7.1%. On to `COc1ccc(C(=O)Nc2cc(-c3nc4cc(Cl)cc(Cl)c4o3)ccc2C)cc1`, for which the displacement is -0.9%.

For `CC1CC(Nc2ccccc2)c2ccccc2N1C(=O)c1sc2ccccc2c1Cl` (stereo not given), the displacement turned out to be 0.4%. Regarding `O=C1/C(=C\c2ccccc2OS(=O)(=O)c2ccccc2)SC(=S)N1c1ccccc1`, the displacement is -6.6%. As to `COc1cc(OC)cc(C(=O)N/N=C(\C)CC(=O)Nc2ccccc2-c2ccccc2)c1`, the displacement is -44.2%. As to `COc1ccc2c(c1OC)C(=O)N(c1ccc(NC(C)=O)cc1)C2=O`, the displacement is -13.2%. As to `CC(C)(C)c1ccc(OCC(=O)Nc2ccccc2-c2ccccc2)cc1`, the displacement was 6.1%.

Take `CC(C)n1nc(CC(=O)O)c2ccccc2c1=O`: the displacement is -0.4%. The same measure for `O=[N+]([O-])c1ccc(Cl)cc1NC(c1ccccc1)c1ccccc1`: -4.6%; for `Cc1cc(O)c2c(C)c(Cc3ccccc3)c(=O)oc2c1`: 6.9%; for `COC(=O)c1c(N)sc(C)c1-c1cccc(Cl)c1`: -5.5%. On to `CCc1ccc(-n2[nH]c(=O)c(/C=C3\C(=O)N(c4ccccc4)N=C3C)c2O)cc1`, for which the displacement was -3.6%. With `O=C(N/N=C/c1cc(Br)ccc1O)c1cc(-c2ccc3ccccc3c2)n[nH]1`, the displacement is -12.9%. In the case of `CSc1cccc(NC(=O)Nc2ccc(Cl)cc2)c1`, the displacement is -5.2%. In the case of `COc1ccc(C(=O)/C=C/Nc2c(C)n(C)n(-c3ccccc3)c2=O)cc1OC`, the displacement came to 5.2%. Regarding `Cc1cc(C)c(S(=O)(=O)NCc2ccc(S(N)(=O)=O)cc2)c(C)c1`, the displacement is 5.3%.

As for `COc1ccc(CNC(=O)C(=O)Nc2ccc(Br)cc2)cc1`, the displacement is 15.7%. Regarding `O=C(c1ccc(Cl)cc1)N1CCC(Cc2ccccc2)CC1`, the displacement stood at 16.4%.

For the molecule `CCOc1ccc(-c2nc(Cc3ccccc3OC)no2)cc1`, the displacement is -6.4%. Regarding `O=C1NC(=O)/C(=C\c2cc([N+](=O)[O-])ccc2Cl)S1`, the displacement was 0.7%. With `COc1cc(OC)cc(C(=O)N2CCN(C(=O)COc3ccc4ccccc4c3)CC2)c1` the figure was 36.3%; with `CC(c1ccccc1)N1C(=O)c2ccc(C(=O)c3ccc(C(=O)O)cc3)cc2C1=O` (stereo not given), -11.8%; with `COC(=O)COc1ccc(/C=C2\C(=O)NC(=O)N(C)C2=O)cc1OC`, -18.2%.

For `N#C/C(=C\Nc1ccccc1)c1nc(-c2cc3cc(Br)ccc3oc2=O)cs1`, the displacement is 9.8%. For the molecule `CCn1c2ccccc2c2cc(CN3CCN(C(=O)c4ccc(OC)c(OC)c4)CC3)ccc21`, the displacement turned out to be 11.6%. As to `Clc1ccccc1CN1CCN(N=Cc2ccccc2)CC1`, the displacement stood at 6.4%. Consider `O=C(Nc1ccc([N+](=O)[O-])cn1)c1cc(Cl)ccc1Cl`, for which the displacement was 1.8%. Turning to `CCOc1ccc(N(CC(=O)Nc2ccc(F)cc2)S(C)(=O)=O)cc1`, the displacement is 8%. Consider `COc1cc(CSc2ncn[nH]2)c(OC)cc1CSc1ncn[nH]1`, for which the displacement is 6.2%. On to `CC(C)(C)NC(=O)C(=O)N/N=C/c1ccc(Cl)cc1`, for which the displacement stood at 9.8%. The same measure for `Cc1ccc(C(=O)CCNc2ccc(I)cc2)o1`: 20.1%; for `COc1ccc2occ(C(=O)c3ccccc3)c2c1`: 11.7%. On to `Cc1cccc(OCCCc2c(C)n[nH]c2C)c1`, for which the displacement was -2.7%. As for `Cc1nnc(NC(=O)c2cccc(F)c2)s1`, the displacement was determined as 16.7%.

Regarding `O=c1oc2cc(O)c([N+](=O)[O-])cc2cc1-c1csc(-c2ccc(Cl)cc2)n1`, the displacement was -11.3%.

For `CCCOc1cccc(C(=O)Nc2sc(CCC)cc2C(=O)OC)c1`, the displacement is -3.4%. For the molecule `O=C1CC(c2ccccc2)CC2=C1C(c1cccnc1)Nc1ccc(C(=O)c3ccccc3)cc1N2` (stereo not given), the displacement was -7.2%. On to `COCCOC(=O)c1ccc(NC(=O)c2ccc(Cl)cc2Cl)cc1`, for which the displacement came out at 3.5%.

As for `Cc1ccc(N2C(=O)NC(=O)/C(=C\c3ccc(N(C)C)o3)C2=O)cc1`, the displacement was -134%. `Cc1ccc(NC(=O)c2ccccc2)cc1F`: the displacement is -6.5%. As for `CC1=C(C(=O)Nc2ccc(Cl)cc2)C(c2ccc(Cl)cc2Cl)NC(=O)N1` (stereo not given), the displacement was -7.7%. For the molecule `COc1cccc(C(=O)NCC2CCCO2)c1` (stereo not given), the displacement was found to be 6.5%. In the case of `Cc1nc(C)c(/C(O)=C/c2nc3ccccc3oc2=O)s1`, the displacement was -1.1%.

As for `Cc1cc(/C=C2\C(=O)NC(=O)N(c3cccc(F)c3)C2=O)c(C)n1C`, the displacement was 18.4%.

`Cc1cccc(N2C(=O)C(Cl)=C(Nc3ccc(F)cc3)C2=O)c1C`: the displacement was 4.2%. With `CCOC(=O)c1[nH]c(=O)[nH]c1CSCCO` the figure was -6.7%; with `COc1ccc(/C=C(/C#N)c2nc(-c3ccc(C)cc3)cs2)o1`, 0.9%. As to `CCCOc1ccc(C(=O)Nc2scc(-c3ccc(Cl)cc3)c2C(=O)OC)cc1`, the displacement was 0.4%. `O=C(Nc1ccc(I)cc1Cl)c1cccc([N+](=O)[O-])c1`: the displacement amounted to 5.8%. With `COC(=O)c1ccccc1NC(=O)C1CC(=O)N(C2CCCCC2)C1` (stereo not given), the displacement was found to be 1.8%. On to `N#Cc1c(NCc2ccccc2)ccnc1SCc1ccccc1`, for which the displacement is -4.8%. On to `CC(C)CCC(CCC(=O)O)NC(=O)c1ccccc1` (stereo not given), for which the displacement is -0.5%.

Turning to `O=C(COc1ccc2ccccc2c1)Nc1cccc(-c2cc3ccccc3oc2=O)c1`, the displacement was -2.4%. `CN1CCN(C(=O)c2cnn3c(C(F)(F)F)cc(-c4cccs4)nc23)CC1`: the displacement was found to be 11.9%. In the case of `COc1ccc(C2/C(=C(\O)c3ccccc3)C(=O)C(=O)N2CCCCCC(=O)O)cc1` (stereo not given), the displacement is -4.8%. On to `COc1ccc(CNC(=O)C(=O)Nc2ccc([N+](=O)[O-])cc2)cc1`, for which the displacement came to 14.5%.

As to `O=[N+]([O-])c1ccccc1/C=N/N/C(=N/c1ccccn1)c1ccccn1`, the displacement is -6%. Consider `CC/C(=C1\C(=O)N(c2nc3ccccc3s2)N=C1C(F)(F)F)N1CCCCC1`, for which the displacement stood at 13.2%. For `CCOc1ccc(C2C=C(Nc3ccccc3)C(=O)N2c2ccccc2)cc1` (stereo not given), the displacement is 7.7%. For `O=C(NC1CCCCC1)c1ccc(Cl)c(Cl)c1`, the displacement was found to be 3.3%. For the molecule `CCOc1cc(C=C2C(=O)NC(=S)NC2=O)cc(Br)c1OCCOc1ccccc1C`, the displacement came out at 9.1%.
